Source: PubChem BioAssay (NCATS)
Values joined by “and” are separate entries in the source; they are usually repeats but may differ in a detail not shown here. Equal values may be shown once. Inconclusive means that the source gave no clear call. Such entries were picked first, then a sample of the others. For part of these data: Where the call is inconclusive, the potency comes from a doubtful curve fit. Active and inactive are the calls of the source. Calls follow the shape of the dose curve; as a rule, active = well fitted curve in the direction sought with a large enough effect; inconclusive = small, poorly fitted or top-dose-only effect, or another doubt; inactive = no such curve, though single readings can be large; an effect the other way counts as inactive or inconclusive.

How the values were obtained:
[1] = Viability qHTS for spleen associated tyrosine kinase inhibitor (SYKi) naive MV4-11 cells (AID 1963823); details: MV4-11 AML viability, CellTiter-Glo luminescence, 72 h; viability (% of control): at 45 µM (top of the series); also: nearly all actives have a fitted effect of over 40% in size; also: potency is read from the fitted curve at half-maximal effect
Summary of the method: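 Cells: MV4-11, SYK inhibitor naive, 500 per well. Treatment: library compounds, 72 hr, 37 C, 5% CO2. Read-out: CellTiter-Glo luminescence after 10 min RT.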

[2] = Viability qHTS for spleen associated tyrosine kinase inhibitor (SYKi) drug resistant MV4-11 cells (AID 1963824); details: SYKi-resistant MV4-11 viability, CellTiter-Glo, 72 h; series mostly up to 45 µM; also: nearly all actives have a fitted effect of over 35% in size; also: potency is read from the fitted curve at half-maximal effect
Summary of the method: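 CellTiter-Glo luminescence, read 10 min after reagent addition, reports viability after a 72 hr compound exposure. Cells are an MV4-11 line made resistant to SYK inhibition, seeded at 500 per well onto compound-containing plates.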

[3] = Quantitative highthroughput screen to assess conditional lethalithy of NOMO1 cells grown in RPMI1640 with dialyzed fetal bovine serum (RPMI+ds) (AID 1963877); details: NOMO1 in RPMI+dialyzed FBS viability, ATP luminescence, 48 h; series mostly up to 45.8 µM; also: nearly all actives have a fitted effect of over 30% in size; also: potency is read from the fitted curve at half-maximal effect;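 as to Viability: 100% = DMSO control wells and 0% = empty wells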
Summary of the method: (§1)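 Each medium arm—HPLM with 10% dialyzed FBS, or RPMI1640 with 5 mM glucose and 10% untreated or dialyzed FBS—was screened against an 11-point, 3-fold compound titration for 48 h at 37 °C, with CellTiter-Glo luminescence as endpoint.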

[4] = Quantitative highthroughput screen to assess conditional lethalithy of SEM cells grown in Human Plasma-Like Medium with dialyzed fetal bovine serum (HPLM+ds) (AID 1963882); details: SEM B-ALL cells in HPLM+ds, CellTiter-Glo viability, 48 h; series mostly up to 45.8 µM; also: nearly all actives have a fitted effect of over 35% in size; also: potency is read from the fitted curve at half-maximal effect
Summary of the method: as §1

[5] = Quantitative highthroughput screen to assess conditional lethalithy of SEM cells grown in RPMI1640 with unreated serum (RPMI+s) (AID 1963883); details: SEM B-ALL cells, CellTiter-Glo viability, 48 h; viability: at 45.8 µM (top of the series); also: nearly all actives have a fitted effect of over 35% in size; also: potency is read from the fitted curve at half-maximal effect;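 as to Viability: 100% = DMSO wells and 0% = empty wells without cells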
Summary of the method: as §1

[6] = Quantitative highthroughput screen to assess conditional lethalithy of SEM cells grown in RPMI1640 with dialyzed fetal bovine serum (RPMI+ds) (AID 1963884); details: SEM B-ALL cells, RPMI+dialyzed FBS, CellTiter-Glo viability, 48 h; viability: at 45.8 µM (top of the series); also: potency is read from the fitted curve at half-maximal effect; nearly all actives have a fitted effect of over 35% in size
Summary of the method: as §1

[7] = Cellular viability qHTS for adrenocortical cancer (ACC) cell line SW-13 (AID 1963989); details: SW-13 ACC cells viability, CellTiter-Glo, 48 h; activity (max response): stronger effect = lower value;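 also: cells grown in serum-free medium with ITS supplement; % is scaled to controls: 0 for no effect and ±100 for the full control effect; nearly all actives have a fitted effect of over 65% in size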
Summary of the method: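 Here, serum-free SW-13 cultures were dosed up to 46 uM. Following 48 h, ATP-dependent luminescence (CellTiter-Glo) reported viable cells, and logistic modeling produced IC50 values.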

[8] = Cellular viability qHTS for adrenocortical cancer (ACC) cell line NCI-H295R (AID 1963990); details: CellTiter-Glo ATP luminescence, 48 h; activity change, negative = viability loss: at 46.1 µM (top of the series);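 also: 0% = DMSO only wells and -100% = full killing with cytotoxic reference compound; nearly all actives have a fitted effect of over 60% in size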
Summary of the method: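 Viability of NCI-H295R after 48 h of treatment (final up to 46 uM) measured through cellular ATP luminescence.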

[9] = Quantitative highthroughput screen to assess conditional lethalithy of P12 Ichikawa cells grown in RPMI1640 with dialyzed fetal bovine serum (RPMI+ds) (AID 1963880); details: ATP luminescence, 48 h; Potency: P12-Ichikawa viability; series mostly up to 45.8 µM; also: nearly all actives have a fitted effect of over 35% in size; also: potency is read from the fitted curve at half-maximal effect;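 as to Viability: 100% = DMSO wells and 0% = empty wells on each plate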
Summary of the method: as §1

[10] = Quantitative highthroughput screen to assess conditional lethalithy of P12 Ichikawa cells grown in RPMI1640 with untreated serum (RPMI+s) (AID 1963881); details: ATP luminescence, 48 h; Potency: viability; series mostly up to 45.8 µM; also: nearly all actives have a fitted effect of over 35% in size; also: potency is read from the fitted curve at half-maximal effect;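 as to Viability: 100% = DMSO wells and 0% = empty wells without cells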
Summary of the method: as §1
Tags tell the direction and shape of the fitted curve.

Compound	Potency [1]	Potency [2]	Potency [3]	Potency [4]	Potency [5]	Potency [6]	activity (max response) [7]	Potency [8]	Potency [9]	Potency [10]
O=C(NC[C@H](O)CN1CCc2ccccc2C1)c1cc(NC2COC2)ncn1	inconclusive: 1.3 µM [cytotoxic, full curve] and inconclusive: 1.66 µM [cytotoxic, partial curve]	inconclusive: 2.31 µM [cytotoxic, full curve, poor fit] and inconclusive: 6.61 µM [cytotoxic, partial curve, poor fit]	inactive	inconclusive: 23.4 µM [cytotoxic, single point]	inconclusive: 18.6 µM [cytotoxic, partial curve, poor fit]	inconclusive: 18.6 µM [cytotoxic, partial curve, poor fit]	inactive: -16.9%	inactive		
O=c1cc(-c2ccc(O)cc2)oc2cc(O)cc(O)c12	inconclusive: 2.95 µM [cytotoxic, full curve]	inconclusive: 9.34 µM [cytotoxic, partial curve]	active: 18.7 µM			inconclusive: 33.2 µM [cytotoxic, single point]			inactive	
COc1ccc([C@@H]2CNC(=O)C2)cc1OC1CCCC1	inactive	inactive	inactive		inactive			inactive	inactive	
N[C@@H](CC(=O)N1CCn2c(nnc2C(F)(F)F)C1)Cc1cc(F)c(F)cc1F	inactive	inconclusive: 20.9 µM [cytotoxic, partial curve, poor fit]	inactive	inconclusive: 11.8 µM [cytotoxic, single point]		inconclusive: 9.35 µM [cytotoxic, single point]				
CCOC(=O)C1=C(O)C(=O)N(Cc2ccccc2)C1	inactive	inactive	inactive	inactive						
Cc1cccc(Nc2ccncc2S(=O)(=O)NC(=O)NC(C)C)c1	inactive	inconclusive: 23.7 µM [cytotoxic, single point]	inactive		inactive					inactive
CS(=O)(=O)c1ccc([C@@H](O)[C@@H](CO)NC(=O)C(Cl)Cl)cc1	inconclusive: 8.41 µM [cytotoxic, partial curve]	inconclusive: 9.44 µM [cytotoxic, partial curve]	inactive	inconclusive: 16.6 µM [cytotoxic, partial curve]	inconclusive: 23.5 µM [cytotoxic, partial curve]	inconclusive: 18.7 µM [cytotoxic, partial curve]			inconclusive: 13.2 µM [cytotoxic, partial curve, poor fit]	inconclusive: 2.96 µM [cytotoxic, full curve, poor fit]
Nc1ccc(-c2ccc3ncc4ccc(=O)n(-c5cccc(C(F)(F)F)c5)c4c3c2)cn1	inconclusive: 33.2 nM [cytotoxic, full curve] and inconclusive: 23.1 nM [cytotoxic, full curve]	inconclusive: 41.7 nM [cytotoxic, full curve] and inconclusive: 20.6 nM [cytotoxic, full curve]	inconclusive: 0.0662 µM [cytotoxic, full curve]	inconclusive: 0.0296 µM [cytotoxic, full curve]	inconclusive: 0.0296 µM [cytotoxic, full curve]	inconclusive: 0.0235 µM [cytotoxic, full curve]			inconclusive: 0.148 µM [cytotoxic, full curve]	inconclusive: 0.235 µM [cytotoxic, full curve]
C[C@]12CCC3c4ccc(O)cc4CCC3C1CCC2=O (some centres not stated)	inconclusive: 2.95 µM [cytotoxic, full curve]	inconclusive: 8.33 µM [cytotoxic, partial curve]	inactive	inconclusive: 8.33 µM [cytotoxic, single point]		inconclusive: 11.8 µM [cytotoxic, single point]		inactive	inconclusive: 4.69 µM [cytotoxic, partial curve, poor fit]	
C#CCN(C)CC1=Cc2ccccc2Oc2ccccc21	inconclusive: 10.5 µM [cytotoxic, full curve]	inconclusive: 16.6 µM [cytotoxic, partial curve]	inactive	inconclusive: 0.0935 µM [cytotoxic, full curve, poor fit]	inconclusive: 0.0743 µM [cytotoxic, full curve, poor fit]	inconclusive: 0.059 µM [cytotoxic, full curve, poor fit]	inactive: 0.599%	inactive		
O=C(NCC1CN(c2ccc(N3CCOCC3=O)cc2)C(=O)O1)c1ccc(Cl)s1 (configuration not stated)	inactive and inconclusive: 16.6 µM [cytotoxic, partial curve]	inconclusive: 29.9 µM [cytotoxic, single point] and inconclusive: 14.8 µM [cytotoxic, partial curve]	inconclusive: 0.743 µM [cytotoxic, full curve]						inconclusive: 4.18 µM [cytotoxic, full curve]	
Cn1c(N2CCCCS2(=O)=O)nc(C(=O)NCc2ccc(F)cc2)c(O)c1=O	inactive	inactive	inactive							inactive
